Laboratory results taken from PubChem BioAssay AID651820 (National Center for Advancing Translational Sciences (NCATS), 2012).
Where “and” joins values, the source holds several entries; their conditions need not be identical. Equal entries are not always repeated. Among all 340,000 compounds or so, about 12,000 (3.5%) were called active. The inconclusive results got no clear call from the source; some entries with a clear call stand among them for comparison. The call rests on the fitted dose curve; in most records, active means well fitted inhibition curve with a large enough effect; inconclusive means small, poorly fitted or top-dose-only effect, or another doubt; inactive means no such curve, though single readings can be large or run the other way. Potencies beside an inconclusive call are fits to weak or partial responses and may not hold up.

assay: qHTS Assay for Inhibitors of Hepatitis C Virus (HCV); conditions: Huh7.5.1 HCVcc-Cre (HCVcc is cell-culture hepatitis C virus) infection, luciferase reporter, 44 h; series mostly up to 41.8 µM
In short: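 Compounds are dispensed onto cells plated 4 h earlier at 1,000 per well, with HCVcc-Cre virus (about 0.5 moi) added next. Following 44 h of culture, luminescent signal is measured for 15 sec after 15 min with substrate at room temperature.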
Potency means the concentration at half of the fitted maximal effect; tags describe the fitted curve by direction and shape.

| SMILES | Potency |
| --- | --- |
| C=C(C(=O)O)C(CCCCCC)C(=O)O (stereo not given) | active: 0.631 µM |
| CCOc1ccc2ccccc2c1/C=N/n1cncn1 | active: 11.2 µM |
| CCOc1ccc(OCc2ccc(C(=O)NC(C)C)o2)cc1 | inconclusive: 11.2 µM [inhibitor, partial curve, poor fit] |
| CO/N=C/NC(=O)c1c(OC)ccnc1Oc1ccc(F)cc1 | inconclusive: 12.6 µM [inhibitor, partial curve] |
| O=C(O)CCCC(=O)N1CCOCCOCCOCCOCC1 | inactive |
| CC(C)(C)c1ccc(/C=N/NC(=S)NC2CCCCC2)cc1 | inconclusive: 31.6 µM [inhibitor, single point] |
| CCOc1cc(/C=N/n2nnnc2N)ccc1OCc1c(C)no[n+]1[O-] | inconclusive: 31.6 µM [inhibitor, partial curve] |
| C1CCCN(CCCCN2CCCCCC2)CC1 | inconclusive: 3.55 µM [inhibitor, partial curve, poor fit] |
| C(#Cc1ccc(C#CCN2CCCC2)cc1)CN1CCCC1 | inconclusive: 2.24 µM [inhibitor, full curve] |
| COc1ccc([C@@H]2C[C@H]3CN(Cc4ccccc4OC)C(=O)[C@]34CCCN24)cc1C | inconclusive: 10 µM [inhibitor, partial curve] |
| FC(F)(F)c1nnc2c(Sc3ccc(Cl)cc3)nc3ccccc3n12 | inconclusive: 10 µM [inhibitor, single point] |
| CCOc1ccc2nc(NC(=O)C3CCCN(S(=O)(=O)c4cccc5nonc45)C3)sc2c1 (stereo not given) | inconclusive: 31.6 µM [inhibitor, single point] |
| O=C(CCc1nc(-c2ccc(F)cc2)no1)Nc1cccc(C(=O)NC2CC2)c1 | active: 14.1 µM |
| O=C(C1=C[C@H](c2ccc3c(c2)OCO3)C[C@H](OCCCCO)O1)N1CCN(Cc2ccc3c(c2)OCO3)CC1 | inactive |
| CCN(CC)S(=O)(=O)c1ccc(N2CCOCC2)c(NC(=O)Cc2ccccc2F)c1 | inactive |
| O=C1Nc2cc(S(=O)(=O)N3CCCC3)ccc2N2CCCC12 (stereo not given) | inactive |
| CC(C)Oc1ccc2ccccc2c1CNC[C@H]1O[C@@H](n2cnc(C(N)=O)n2)[C@H](O)[C@@H]1O | active: 5.01 µM |
| C=CCNc1nc(-c2sc(NC(C)=O)nc2C)cs1 | inconclusive: 31.6 µM [inhibitor, single point] |
| Cc1ccc(NC(=S)NNC(=S)NCc2ccccc2)cc1 | inconclusive: 31.6 µM [inhibitor, single point] |
| N=C1c2ccccc2CN1NC(=O)c1ccc(Cl)cc1 | inactive |
| COc1cccc(C=Nc2ccc(N3CCOCC3)cc2)c1O | inactive |
| CN(C)c1cc(-c2ccc(Cl)cc2)oc(=O)c1Cl | inactive |
| CN(C)S(=O)(=O)c1ccc(C(=O)NNC(=O)C23CC4CC(CC(C4)C2)C3)cc1 | inactive |
| O=C(Nc1ccc(F)cc1Cl)c1ccc2c(=O)n3c(nc2c1)CCCCC3 | inactive |

| SMILES | Potency |
| --- | --- |
| Cc1cccc(NC(=O)CN2C(=O)N/C(=C/c3cc(C)n(-c4ccncc4)c3C)C2=O)c1 | inactive |
| Cc1cc(Nc2cccc([N+](=O)[O-])c2)c2cccc(C)c2n1 | inconclusive: 25.1 µM [inhibitor, single point] |
| CCN(c1ccccc1)S(=O)(=O)c1ccc(Cl)c(NC(=O)CN(C)Cc2cccc(F)c2)c1 | active: 8.91 µM |
| COc1ccc(CCNC(=O)C2CC2)cc1 | inactive |
| O=C(Nc1nc(-c2cc(F)ccc2F)cs1)C1=COCCO1 | inconclusive: 17.8 µM [inhibitor, single point] |
| COc1ccc(-c2nc(N)nc(C(F)(F)F)c2-c2ccccc2OC)c(O)c1 | inconclusive: 31.6 µM [inhibitor, single point] |
| CCC(NC(=O)CCC(=O)N1CCN(S(=O)(=O)c2ccc(C)cc2)CC1)c1ccc(C)cc1 (stereo not given) | inactive |
| COC(=O)c1ccc2[nH]ccc2c1 | inactive |
| Cc1ccc2c(c1)c1c(n2CC(O)CN2CCCCC2C)CCCC1 (stereo not given) | inconclusive: 11.2 µM [inhibitor, partial curve] |
| COCCn1c(=NC(=O)/C=C/c2ccccc2)sc2cc(NC(C)=O)ccc21 | inactive |
| COc1ccc(CN(C)C(=O)CCN(c2ccccc2)S(=O)(=O)c2ccc(C)cc2)c(OC)c1 | inconclusive: 31.6 µM [inhibitor, single point] |
| Nc1ccc(C(=O)Nc2ccc(Nc3ccncc3)cc2)cc1 | inconclusive: 3.55 µM [inhibitor, single point] |
| S=C(NCc1ccco1)N1CCN(c2ccccn2)CC1 | inactive |
| COc1ccc(C)cc1NC(=O)c1cc(S(=O)(=O)N2CCC3(CC2)OCCO3)ccc1F | inconclusive: 31.6 µM [inhibitor, single point] |
| Cn1c2c(c3ccccc31)CCN(CCCCN1CCN(c3ccccc3)CC1)C2=O | inconclusive: 31.6 µM [inhibitor, single point] |
| COc1ccc(C2CC2/C(=N/OC(=O)c2cccs2)c2ccccc2)cc1 (stereo not given) | inactive |
| N#CC1=C2N=C(N)c3c(sc4c3CCCCC4)N2C2=C(C(=O)CCC2)C1c1ccccc1 (stereo not given) | inconclusive: 31.6 µM [inhibitor, single point] |
| CCOC(=O)c1sc2nc3n(c(=O)c2c1C)CCC(C)CC3 (stereo not given) | inconclusive: 22.4 µM [inhibitor, single point] |
| C=CCC[C@H](Cc1ccc(F)cc1)C(=O)OC[C@@H](Cc1c[nH]c2ccccc12)NC(=O)[C@@H](CC=C)CC(=O)NCCO | inconclusive: 28.2 µM [inhibitor, single point] |
| COc1cc(C#Cc2c(-c3cncn3C)n(C)c3ccc(-c4cnc(OC)nc4)cc23)cc(OC)c1 | inconclusive: 17.8 µM [inhibitor, single point] |
| Cc1onc(-c2ccccc2)c1C(=O)NC(=S)NNC(=O)c1ccc(O)cc1 | inconclusive: 12.6 µM [inhibitor, single point] |
| CCOc1ccc(C(O)(c2ccccc2OC)C(CN2CCCC2)c2ccccc2)cc1 (stereo not given) | inactive |
| CC(=O)Nc1ccc(C(=O)OCC(=O)N2CCC(Cc3ccccc3)CC2)cc1 | inconclusive: 22.4 µM [inhibitor, single point] |
| COc1ccc(F)cc1C(=O)C1CCCN(Cc2cccn2-c2ccccn2)C1 (stereo not given) | inconclusive: 3.55 µM [inhibitor, partial curve] |

| SMILES | Potency |
| --- | --- |
| COc1ccc(Nc2nc(N)c(C(=O)c3ccc(OC)cc3)s2)cc1 | inconclusive: 8.91 µM [inhibitor, partial curve, poor fit] |
| CC1Cc2ccccc2N1C(=O)C1CCN(S(=O)(=O)Cc2ccccc2)CC1 (stereo not given) | inconclusive: 8.91 µM [inhibitor, partial curve] |
| COc1cc2cc(C(c3nnnn3C3CCCCC3)N(C)C3CCCCC3)c(=O)[nH]c2cc1OC (stereo not given) | inconclusive: 31.6 µM [inhibitor, single point] |
| Cc1cccc(Nc2nc(N)nc(CN3CCN(Cc4ccc5c(c4)OCO5)CC3)n2)c1 | inactive |
| COc1cc(CNCCN(C)C)c(Br)cc1OC1CCCC1 | inconclusive: 25.1 µM [inhibitor, single point] |
| CCOC(=O)N1CCC(NC(=O)c2cc(C)c3c(C)nn(-c4ccccc4)c3n2)CC1 | inconclusive: 0.631 µM [inhibitor, full curve] |
| O=C(N[C@@H]1C/C=C\C[C@@H](CC(=O)N(CCO)Cc2ccccc2)C(=O)NC[C@H](c2ccccc2)OC1=O)OCC1c2ccccc2-c2ccccc21 | inconclusive: 15.8 µM [inhibitor, partial curve] |
| COc1ccc(-c2nc3c(-c4ccccc4)cnn3cc2C)cc1F | inactive |
| COc1ccc(Cc2noc(CN3CCCN(Cc4ccc(F)cc4)CC3)n2)cc1OC | inconclusive: 11.2 µM [inhibitor, partial curve] |
| COc1ccc(-c2noc(CSc3nnc(CCc4ccccc4)n3-c3ccccc3)n2)cc1OC | active: 11.2 µM |
| CCCc1ccc(S(=O)(=O)N2CCN(C(C)C(=O)NC3CCCC3)CC2)cc1 (stereo not given) | inconclusive: 20 µM [inhibitor, single point] |
| C=CCSc1nnc(Cc2c(C)[nH]c3ccccc23)o1 | inconclusive: 25.1 µM [inhibitor, single point] |
| Cc1cc(C)c2[nH]c(=O)c(CN(Cc3ccc4c(c3)OCO4)Cc3nnnn3C3CCCC3)cc2c1 | inactive and inconclusive: 31.6 µM [inhibitor, single point] |
| COc1cc(S(=O)(=O)N2CCN(c3ccccn3)CC2)ccc1Br | inactive |
| Cc1ccc(NC(=O)CN(C)c2ccc(S(=O)(=O)N3CCN(C)CC3)cn2)cc1 | inactive |
| CCc1ncc(CN2CCCC(C(=O)Nc3ccc(-c4cscn4)cc3)C2)cn1 (stereo not given) | inactive |
| CCOc1ccc2nc(NC(=O)C3CCCN(S(=O)(=O)c4cccs4)C3)sc2c1 (stereo not given) | active: 14.1 µM |
| CCOc1ccc(NC(=O)CN(C)C(=O)c2ccc(C)o2)cc1OCC | inconclusive: 22.4 µM [inhibitor, single point] |
| COc1cc(NC(=O)c2cc3cccc(OC)c3o2)cc(C(=O)Nc2cccc(C(F)(F)F)c2)c1 | inconclusive: 7.08 µM [inhibitor, partial curve] |
| CC(=O)n1cc(C(C[N+](=O)[O-])SCCN)c2ccccc21 (stereo not given) | inconclusive: 31.6 µM [inhibitor, single point] |
| CCN(C(=O)N1CCOCC1)c1ccccc1 | inactive |
| Cc1cc(C)cc(-n2nnnc2SCC(=O)Nc2cccc(NC(=O)c3ccco3)c2)c1 | inconclusive: 10 µM [inhibitor, partial curve] |
